Laboratory results from PMC8317129 (ACS infectious diseases, 2021).

Test system: N. gonorrhoeae ATCC 700825
Assay: time-kill
Conditions: 10 × MIC; for bacteriostatic or bactericidal activity: 24 hours

SMILES | reduction of bacterial burden compared to AZM [log10] | bacteriostatic or bactericidal activity | reduction of bacterial CFU count compared to DMSO (24-hour time point) [log10]
NS(=O)(=O)c1nnc(NC(=O)CC2CCCCC2)s1 [analog 20] | 2.4 | bacteriostatic | –
CC[C@H]1OC(=O)[C@H](C)[C@@H](O[C@H]2C[C@@](C)(OC)[C@@H](O)[C@H](C)O2)[C@H](C)[C@@H](O[C@@H]2O[C@H](C)C[C@H](N(C)C)[C@H]2O)[C@](C)(O)C[C@@H](C)CN(C)[C@H](C)[C@@H](O)[C@]1(C)O [AZI, azithromycin] | – | bactericidal | –
CC(=O)Nc1nnc(S(N)(=O)=O)s1 [AZM, acetazolamide] | – | – | ≥ 3
NS(=O)(=O)c1nnc(NC(=O)CCc2ccccc2)s1 [analog 23] | – | bacteriostatic | –
